# From patent publication US5486505A, “Polypeptide compounds having growth hormone releasing activity” (Polygen Holding Corporation, priority 1992, dated 1996)
# Part of at least one peptide drawing is inferred or uncertain, most often the ends. Where a SMILES comes first, the peptide text is derived from it. [ ]: non-standard residue; d: D form. d1Nal = N[C@H](Cc1cccc2ccccc12)C(=O)O; d2Nal = N[C@H](Cc1ccc2ccccc2c1)C(=O)O
# What was measured:
# [1] = system: growth hormone (GH) release; experiment: In vivo GH release in pentobarbital anesthetized rats (serum GH by RIA); parameters: species or system immature female Sprague-Dawley rats; conditions: for GH Released: Table 4; for GH Released by Compound in Column A ng/mL + SEM: Table 3, sacrificed 10 min after injection; for activity compared with analogues differing in the A2 position: summary in words of Tables 3 and 4
# Protocol: Immature female Sprague-Dawley rats were obtained from the Charles River Laboratories (Wilmington, Mass.). After arrival they were housed at 25° C. with a 14:10 hour light:dark cycle. Water and Purina rat chow were available ad libitum. Pups were kept with their mothers until 21 days of age.
# Twenty-six day old rats, six rats per treatment group, were anesthetized interperitoneally with 50 mg/Kg of pentobarbital 20 minutes prior to i. v. treatment with peptide. Normal saline with 0.1% gelatin was the vehicle for intravenous (i. v.) injections of the peptides. The anesthetized rats, weighing 55-65 grams, were injected i. v. with the quantity of growth hormone releasing compounds indicated in Tables 3 and 4. Injection was made as a 0.2 mL solution into the jugular vein.
# All animals were sacrificed by guillotine 10 minutes after the final test injection (see Tables 3 and 4). Trunk blood for the determination of blood GH levels was collected following decapitation. After allowing the blood to clot, it was centrifuged and the serum was separated from the clot. Serum was kept frozen until the day of sampling for radioimmunasay (RIA) determination of growth hormone levels according to the following procedure, as developed by the National Institute of Arthritis, Diabetes and Digestive and Kidney Diseases (NIADDK).
# Reagents are generally added to the RIA analysis tubes at a single sitting, at refrigerator temperature (about 4° C.) in the following sequence:
# Reagent addition is generally carried out so that there is achieved a final RIA tube dilution of about 1:30,000 (antiserum to total liquid volume; vol:vol).
# The mixed reagents are then typically incubated at room temperature (about 25° C.) for about 24 hours prior to addition of a second antibody (e.g., goat or rabbit anti-monkey gamma globulin serum) which binds to and causes precipitation of the complexed growth hormone antiserum. Precipitated contents of the RIA tubes are then analyzed for the number of counts in a specified period of time in a gamma scintillation counter. A standard curve is prepared by plotting number of radioactive counts versus growth hormone (GH) level. GH levels of unknowns are then determined by reference to the standard curve.
# Serum GH was measured by RIA with reagents provided by the National Hormone and Pituitary Program.
# Serum levels in Tables 3 and 4 are recorded in ng/mL in terms of the rat GH standard of 0.61 International Units/mg (IU/mg). Data is recorded as the mean +/- standard error of the mean (SEM). Statistical analysis was performed with Student's t-test. NS means the difference was not statistically significant. In Tables 3 and 4 the results shown are the average of studies with six rats.
# [2] = system: growth hormone (GH) release; experiment: In vivo synergistic effects in unanesthetized rats of combinations of GH-releasing compounds (serum GH by RIA); conditions: control 12 ± 3
# [3] = total dose 1.0 μg i.v., no control GH printed
# [4] = total dose 3.0 μg i.v., no control GH printed
# [5] = total dose .1 μg i.v., no control GH printed
# [6] = total dose .3 μg i.v., no control GH printed
# [7] = total dose 1.0 μg i.v., control GH 151 ± 16
# [8] = total dose 3.0 μg i.v., control GH 151 ± 16
# [9] = total dose .1 μg i.v., control GH 151 ± 16
# [10] = total dose .3 μg i.v., control GH 151 ± 16
# [11] = total dose 0.1 μg i.v., control GH 111 ± 25
# [12] = total dose 0.3 μg i.v., control GH 111 ± 25
# [13] = total dose 1.0 μg i.v., control GH 111 ± 25
# [14] = total dose 1.0 μg i.v., control GH 138 ± 12
# [15] = total dose 3.0 μg i.v., control GH 138 ± 12
# [16] = total dose .1 μg i.v., control GH 138 ± 12
# [17] = total dose .3 μg i.v., control GH 138 ± 12
smiles,measurement,setting,value
C[C@H](NC(=O)[C@@H](Cc1ccccc1)NC(=O)[C@H](Cc1c[nH]c2ccccc12)NC(=O)[C@H](C)NC(=O)[C@@H](Cc1ccc2ccccc2c1)NC(=O)[C@@H](N)Cc1c[nH]cn1)C(=O)N[C@@H](CCCCN)C(N)=O [His--D^β Nal--Ala--Trp--DPhe--Ala--Lys--NH2] (H-H[d2Nal]AW[dF]AK-NH2),GH Released,[1]; [3],1593 ± 359 ng/mL
same,GH Released,[1]; [4],3337 ± 583 ng/mL
same,GH Released,[1]; [5],484 ± 89 ng/mL
same,GH Released,[1]; [6],971 ± 241 ng/mL
C[C@H](NC(=O)[C@@H](Cc1ccccc1)NC(=O)[C@H](Cc1c[nH]c2ccccc12)NC(=O)[C@H](C)NC(=O)[C@@H](Cc1c[nH]c2ccccc12)NC(=O)[C@@H](N)Cc1c[nH]cn1)C(=O)N[C@@H](CCCCN)C(N)=O [His--DTrp--Ala--Trp--DPhe--Ala--Lys--NH2] (H-H[dW]AW[dF]AK-NH2),GH Released,[1]; [3],1965 ± 366 ng/mL
same,GH Released,[1]; [4],4553 ± 670 ng/mL
same,GH Released,[1]; [5],420 ± 105 ng/mL
same,GH Released,[1]; [6],900 ± 163 ng/mL
C[C@H](NC(=O)[C@@H](Cc1ccc2ccccc2c1)NC(=O)[C@@H](N)Cc1c[nH]cn1)C(=O)N[C@@H](Cc1c[nH]c2ccccc12)C(=O)N[C@H](Cc1ccccc1)C(=O)N[C@@H](CCCCN)C(N)=O [His--D^β Nal--Ala--Trp--DPhe--Lys--NH2] (H-H[d2Nal]AW[dF]K-NH2),GH Released (ng/mL) ±SEM,"[2]; Table 5, dose 1 μg",58 ± 13 ng/mL
same,GH Released (ng/mL) ±SEM,"[2]; Table 5, dose 3 μg",240 ± 32 ng/mL
same,GH Released by Compound in Column A ng/mL + SEM,[1]; [7],3728 ± 691 ng/mL
same,GH Released by Compound in Column A ng/mL + SEM,[1]; [8],3238 ± 273 ng/mL
same,GH Released by Compound in Column A ng/mL + SEM,[1]; [9],938 ± 255 ng/mL
same,GH Released by Compound in Column A ng/mL + SEM,[1]; [10],1716 ± 258 ng/mL
same,activity compared with analogues differing in the A2 position,[1],"more active than compounds having DTrp, D^α Nal, DAsp, and DCys (SMe) in the A2 position"
C[C@H](NC(=O)[C@@H](CC(=O)O)NC(=O)[C@@H](N)Cc1c[nH]cn1)C(=O)N[C@@H](Cc1c[nH]c2ccccc12)C(=O)N[C@H](Cc1ccccc1)C(=O)N[C@@H](CCCCN)C(N)=O [His--DAsp--Ala--Trp--DPhe--Lys--NH2] (H-H[dD]AW[dF]K-NH2),GH Released,"[1]; total dose 1.0 μg i.v., control GH 150 ± 20",154 ± 63 ng/mL
same,GH Released,"[1]; total dose 3.0 μg i.v., control GH 150 ± 20",155 ± 34 ng/mL
same,GH Released,"[1]; total dose 10.0 μg i.v., control GH 150 ± 20",163 ± 44 ng/mL
same,GH Released,"[1]; total dose 30.0 μg i.v., control GH 150 ± 20",224 ± 62 ng/mL
same,GH Released,"[1]; total dose 100.0 μg i.v., control GH 150 ± 20",178 ± 83 ng/mL
C[C@H](NC(=O)[C@@H](N)Cc1c[nH]cn1)C(=O)N[C@H](Cc1c[nH]c2ccccc12)C(=O)N[C@@H](C)C(=O)N[C@@H](Cc1c[nH]c2ccccc12)C(=O)N[C@H](Cc1ccccc1)C(=O)N[C@@H](CCCCN)C(N)=O [His--Ala--DTrp--Ala--Trp--DPhe--Lys--NH2] (H-HA[dW]AW[dF]K-NH2),GH Released,[1]; [3],830 ± 103 ng/mL
same,GH Released,[1]; [4],2588 ± 341 ng/mL
same,GH Released,[1]; [6],261 ± 32 ng/mL
C[C@H](N)C(=O)N[C@@H](Cc1c[nH]cn1)C(=O)N[C@H](Cc1c[nH]c2ccccc12)C(=O)N[C@@H](C)C(=O)N[C@@H](Cc1c[nH]c2ccccc12)C(=O)N[C@H](Cc1ccccc1)C(=O)N[C@@H](CCCCN)C(N)=O [Ala--His--DTrp--Ala--Trp--DPhe--Lys--NH2] (H-AH[dW]AW[dF]K-NH2),GH Released by Compound in Column A ng/mL + SEM,[1]; [11],360 ± 35 ng/mL
same,GH Released by Compound in Column A ng/mL + SEM,[1]; [12],903 ± 217 ng/mL
same,GH Released by Compound in Column A ng/mL + SEM,[1]; [13],2957 ± 427 ng/mL
same,GH Released by Compound in Column A ng/mL + SEM,[1]; [14],1516 ± 215 ng/mL
same,GH Released by Compound in Column A ng/mL + SEM,"[1]; total dose 3.0 μg i.v., control GH 111 ± 25",3956 ± 485 ng/mL
same,GH Released by Compound in Column A ng/mL + SEM,[1]; [15],3095 ± 473 ng/mL
same,GH Released by Compound in Column A ng/mL + SEM,[1]; [16],254 ± 78 ng/mL
same,GH Released by Compound in Column A ng/mL + SEM,[1]; [17],809 ± 59 ng/mL
C[C@H](NC(=O)[C@@H](Cc1cccc2ccccc12)NC(=O)[C@@H](N)Cc1c[nH]cn1)C(=O)N[C@@H](Cc1c[nH]c2ccccc12)C(=O)N[C@H](Cc1ccccc1)C(=O)N[C@@H](CCCCN)C(N)=O [His--D^α Nal--Ala--Trp--DPhe--Lys--NH2] (H-H[d1Nal]AW[dF]K-NH2),GH Released,[1]; [7],1130 ± 179 ng/mL
same,GH Released,[1]; [8],2319 ± 139 ng/mL
same,GH Released,[1]; [9],280 ± 70 ng/mL
same,GH Released,[1]; [10],439 ± 122 ng/mL
C[C@H](NC(=O)[C@@H](N)Cc1c[nH]cn1)C(=O)N[C@H](Cc1ccc2ccccc2c1)C(=O)N[C@@H](C)C(=O)N[C@@H](Cc1c[nH]c2ccccc12)C(=O)N[C@H](Cc1ccccc1)C(=O)N[C@@H](C)C(=O)N[C@@H](CCCCN)C(N)=O [His--Ala--D^β Nal--Ala--Trp--DPhe--Ala--Lys--NH2] (H-HA[d2Nal]AW[dF]AK-NH2),GH Released,[1]; [3],694 ± 131 ng/mL
same,GH Released,[1]; [4],1440 ± 407 ng/mL
same,GH Released,[1]; [5],94 ± 18 ng/mL
same,GH Released,[1]; [6],292 ± 55 ng/mL
C[C@H](N)C(=O)N[C@@H](Cc1c[nH]cn1)C(=O)N[C@H](Cc1ccc2ccccc2c1)C(=O)N[C@@H](C)C(=O)N[C@@H](Cc1c[nH]c2ccccc12)C(=O)N[C@H](Cc1ccccc1)C(=O)N[C@@H](CCCCN)C(N)=O [Ala--His--D^β Nal--Ala--Trp--DPhe--Lys--NH2] (H-AH[d2Nal]AW[dF]K-NH2),GH Released by Compound in Column A ng/mL + SEM,[1]; [11],970 ± 169 ng/mL
same,GH Released by Compound in Column A ng/mL + SEM,[1]; [12],2898 ± 247 ng/mL
same,GH Released by Compound in Column A ng/mL + SEM,[1]; [13],3908 ± 327 ng/mL
same,GH Released by Compound in Column A ng/mL + SEM,[1]; [14],3899 ± 514 ng/mL
same,GH Released by Compound in Column A ng/mL + SEM,[1]; [15],4202 ± 369 ng/mL
same,GH Released by Compound in Column A ng/mL + SEM,[1]; [16],1128 ± 309 ng/mL
same,GH Released by Compound in Column A ng/mL + SEM,[1]; [17],2479 ± 389 ng/mL
same,activity compared with analogues differing in the A2 position,[1],more active than the equivalent DTrp compound
"CCCC[C@H](NC(=O)[C@@H](NC(=O)[C@H](CC(=O)O)NC(=O)[C@H](CCC(N)=O)NC(=O)[C@H](CC(C)C)NC(=O)[C@H](CC(C)C)NC(=O)[C@H](CCCCN)NC(=O)[C@H](CCCNC(=N)N)NC(=O)[C@H](C)NC(=O)[C@H](CO)NC(=O)[C@H](CC(C)C)NC(=O)[C@H](CCC(N)=O)NC(=O)CNC(=O)[C@H](CC(C)C)NC(=O)[C@@H](NC(=O)[C@H](CCCCN)NC(=O)[C@H](CCCNC(=N)N)NC(=O)[C@H](Cc1ccc(O)cc1)NC(=O)[C@H](CO)NC(=O)[C@H](CC(N)=O)NC(=O)[C@@H](NC(=O)[C@H](Cc1ccccc1)NC(=O)[C@@H](NC(=O)[C@H](C)NC(=O)[C@H](CC(=O)O)NC(=O)[C@H](C)NC(=O)[C@@H](N)Cc1ccc(O)cc1)[C@@H](C)CC)[C@@H](C)O)C(C)C)[C@@H](C)CC)C(=O)N[C@@H](CO)C(=O)N[C@@H](CCCNC(=N)N)C(N)=O [GHRH, Tyr--Ala--Asp--Ala--Ile--Phe--Thr--Asn--Ser--Tyr--Arg--Lys--Val--Leu--Gly-Gln--Leu--Ser--Ala--Arg--Lys--Leu--Leu--Gln--Asp--Ile--Nle--Ser--Arg--NH.ub.2]",GH Released (ng/mL) ±SEM,"[2]; Table 5, dose 3 μg",131 ± 50 ng/mL
